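Interpolation was linear, between the two tested concentrations surrounding the appropriate level; five concentrations were tested over 48 hours in 96-well plates. At the GI50, growth is halved. TGI denotes the concentration required for complete inhibition of growth.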
system: NCI-H322M lung; experiment: NCI tumour cell line growth inhibition, 48 h

Going from `CCC[Se]C(=O)c1ccc(C(=O)[Se]CCC)s1` to `COc1ccc2cc([C@H](C)C(=O)[Se]CCC#N)ccc2c1`, the GI50 rises from less than 0.01 µM to 2.08 µM.

Going from `CN(C)c1nc(NCCNS(=O)(=O)c2ccc(C3=Nc4c(N)nc(N)nc4NC(c4ccc(C(F)(F)F)cc4)C3)cc2)nc(Nc2ccc(F)cc2)n1` (stereo not given) to `O=C(N/N=C/c1c[nH]c2ccccc12)Nc1ccc(F)c(Cl)c1`, the GI50 falls from 42.5 µM to 15.2 µM (2.8-fold).

Compound `FC(F)(F)c1cc2c(Cl)ncnc2n1CCN1CCOCC1` has a GI50 of 16 µM.

First: CCC[Se]C(=O)c1ccc(C(=O)[Se]CCC)s1
Second: COc1ccc2cc([C@H](C)C(=O)[Se]CCC#N)ccc2c1
The TGI of the first is 19-fold lower: 0.311 µM for the first, 5.86 µM for the second.

First: CN(C)c1nc(NCCNS(=O)(=O)c2ccc(C3=Nc4c(N)nc(N)nc4NC(c4ccc(C(F)(F)F)cc4)C3)cc2)nc(Nc2ccc(F)cc2)n1 (stereo not given)
Second: O=C(N/N=C/c1c[nH]c2ccccc12)Nc1ccc(F)c(Cl)c1
The TGI of the first is higher: greater than 86 µM for the first, 29.6 µM for the second.

In the case of `FC(F)(F)c1cc2c(Cl)ncnc2n1CCN1CCOCC1`, the TGI is reported as 54 µM.

Source: PubChem BioAssay (NCI)
